Consider 57 compounds from paper PMC4336329 (PLoS ONE, 2015).

The whole screen tested about 310,000 compounds, of which about 14,000 (4.5%) showed an effect of 50% or more. Effects have a minus sign here. This is one part of the list.
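Further: peak tail current of the secondary pulse compared with the same well before compound.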

The target in the assay is human ether-à-go-go-related gene (hERG) potassium channel (human, UniProt Q12809). The assay can be described thus: primary screen, population patch clamp on CHO cells stably expressing hERG.
human ether-à-go-go-related gene (hERG) potassium channel, sequence (Q12809 whole entry, looked up): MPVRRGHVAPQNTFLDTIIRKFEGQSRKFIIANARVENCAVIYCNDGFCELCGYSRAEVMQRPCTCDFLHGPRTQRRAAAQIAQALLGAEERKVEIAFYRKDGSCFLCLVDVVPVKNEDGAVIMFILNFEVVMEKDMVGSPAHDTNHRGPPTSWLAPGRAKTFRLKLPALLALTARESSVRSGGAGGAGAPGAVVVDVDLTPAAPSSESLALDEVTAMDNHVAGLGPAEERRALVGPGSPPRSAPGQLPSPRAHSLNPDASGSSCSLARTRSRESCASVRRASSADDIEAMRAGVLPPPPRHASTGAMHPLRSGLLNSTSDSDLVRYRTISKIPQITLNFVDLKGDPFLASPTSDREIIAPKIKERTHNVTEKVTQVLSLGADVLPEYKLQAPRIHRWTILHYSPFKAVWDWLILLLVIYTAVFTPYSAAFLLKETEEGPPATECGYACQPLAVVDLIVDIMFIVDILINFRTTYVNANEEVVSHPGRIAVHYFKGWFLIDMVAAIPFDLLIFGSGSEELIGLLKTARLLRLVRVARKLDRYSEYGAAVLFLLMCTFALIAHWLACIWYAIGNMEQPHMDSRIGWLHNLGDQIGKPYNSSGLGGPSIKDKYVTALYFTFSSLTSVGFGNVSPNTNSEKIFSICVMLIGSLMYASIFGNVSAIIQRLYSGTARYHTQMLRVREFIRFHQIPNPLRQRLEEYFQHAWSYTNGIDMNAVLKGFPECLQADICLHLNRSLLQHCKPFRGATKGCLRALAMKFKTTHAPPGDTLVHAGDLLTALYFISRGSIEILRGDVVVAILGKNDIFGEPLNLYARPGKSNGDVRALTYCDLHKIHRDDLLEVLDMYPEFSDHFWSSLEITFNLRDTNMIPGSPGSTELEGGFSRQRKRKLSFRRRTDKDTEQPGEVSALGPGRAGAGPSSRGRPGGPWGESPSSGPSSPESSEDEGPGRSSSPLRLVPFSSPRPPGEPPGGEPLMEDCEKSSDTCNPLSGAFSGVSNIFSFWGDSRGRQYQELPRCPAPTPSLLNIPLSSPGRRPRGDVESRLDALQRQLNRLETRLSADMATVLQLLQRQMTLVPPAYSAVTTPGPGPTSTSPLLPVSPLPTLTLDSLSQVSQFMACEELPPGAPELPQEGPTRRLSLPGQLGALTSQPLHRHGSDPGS
Consider `Cc1ccc(NS(=O)(=O)c2cccs2)nc1`, for which the “hERG current change (%, negative = inhibition) at 10uM” value worked out at 6.58%.
With `Cc1c(OCC(=O)NCC2CCC(C(=O)O)CC2)ccc2c(-c3ccccc3)cc(=O)oc12` (stereo not drawn) the figure was 17.2%; with `COc1ccc(N(CCC(=O)Nc2ccccc2F)S(=O)(=O)c2ccc(C)cc2C)cc1`, -16.7%.
Then `CC1=NN(c2cccc(Cl)c2)C(=O)C12CC(C)=C(C)CS2` (stereo not drawn), with -6.05%; and `COC(=O)c1sc(N2C(=O)C(O)=C(C(=O)c3ccc(C)o3)C2c2ccc([N+](=O)[O-])cc2)nc1C` (stereo not drawn), with 7.29%; and `CC(C)Sc1nnc(SCC(=O)NCCCN2CCCC2=O)s1`, with 3.95%.
With `C=CCC1NS(=O)(=O)OC(CCc2ccccc2)C1O` (stereo not drawn) the figure was 0.294%; with `O=C1CC(N2CCN(C3CCc4ccccc4C3)CC2)C(=O)N1c1ccccc1` (stereo not drawn), -64.6%.
As to `COc1ccc(C(C#N)c2nc3ccccc3nc2Cl)cc1` (stereo not drawn), the “hERG current change (%, negative = inhibition) at 10uM” value is on record as -4.33%.
As for `COc1cc(CN2CCC(C(=O)NCCC(C)C)CC2)ccc1OCc1ccccc1.O=C(O)C(=O)O`, the “hERG current change (%, negative = inhibition) at 10uM” value is -67.8%.
With `O=C1c2cccc([N+](=O)[O-])c2C(=O)N1c1c[nH]c(=O)[nH]c1=O` the figure was 19.7%.
Then `CS(=O)(=O)N1CCN(C(=O)Nc2ccccc2)CC1`, with 21.2%; and `CCc1ccc(-c2cc3c(=O)n(CC(=O)NCc4ccccc4F)ncn3n2)cc1`, with 16.2%; and `Cc1ccc(C(=O)Nc2ccc(Cl)cc2C(F)(F)F)c(Cl)c1`, with -2.36%.
With `COc1cccc(C2=NOC(C(=O)Nc3ccc4c(c3)OCO4)C2)c1OC` (stereo not drawn) the figure was -7.23%; with `COC(=O)c1c(C)c(C)nc(N)c1C#N`, 10.2%.
Consider `CC(C)(Oc1ccc(Cl)cc1)C(=O)NCc1n[nH]c(=O)c2ccccc12`, for which the “hERG current change (%, negative = inhibition) at 10uM” value was -31.7%.
Then `O=C(NC(NC(=S)Nc1cccc(C(=O)O)c1)C(Cl)(Cl)Cl)OCc1ccccc1` (stereo not drawn), with 1.69%.
With `CCCCN(CC)S(=O)(=O)c1ccc(C(=O)Nc2nnc(COC)o2)cc1` the figure was 1.47%; with `C#CCn1c(=NC(=O)c2ccc(Br)s2)sc2cc(NC(C)=O)ccc21`, 10.6%.
Then `CCOC(=O)Cc1csc(SCC(=O)NC2CCCC(C)C2C)n1` (stereo not drawn), with -12.6%; and `CCNc1nc(NCC)n2c(SCC(=O)Nc3ccc(F)cc3)nnc2n1`, with -14.6%; and `COc1ccc(-c2cc(C(=O)N/N=C/c3cccnc3)c3ccccc3n2)cc1`, with -7.06%.
In the case of `COc1cccc(-n2cc(C(=O)NC(C)C)c3ccccc3c2=O)c1`, the “hERG current change (%, negative = inhibition) at 10uM” value is -8.68%.
Turning to `Cc1ccc(C2=CSC3=NS(=O)(=O)CCN23)cc1`, the “hERG current change (%, negative = inhibition) at 10uM” value is reported as 1.05%.
With `Cn1nnnc1SCC(=O)Nc1ccccc1-c1ccccc1` the figure was -2.87%.
Then `Cc1noc(C)c1C(=O)NC(C)c1ccc(Cl)cc1Cl` (stereo not drawn), with -8.56%.
Regarding `CCOC(=O)CNC(=O)CNC(=O)c1ccc(OC(C)C)cc1`, the “hERG current change (%, negative = inhibition) at 10uM” value amounted to 13%.
Turning to `CC(=O)Nn1cc2c(=O)n(C)c(=O)n(C)c2c1`, the “hERG current change (%, negative = inhibition) at 10uM” value worked out at 7.68%.
Then `COC(=O)c1ccccc1NC(=O)n1cc(C)cn1`, with -5.58%; and `CN(CC(=O)N1CCCCC1)S(=O)(=O)c1cccc2nsnc12`, with 0.854%; and `O=c1cc(-c2ccccc2Cl)oc2c(NS(=O)(=O)c3cccs3)ccc(O)c12`, with -23.4%.
Then `N#CC1=C(N)OC2=C(CCc3ccccc32)C1c1ccccc1Cl` (stereo not drawn), with 26.3%; and `O=C(O)C1=C[C@H](c2ccc(Br)cc2)C[C@H](OCCCCO)O1`, with 5.9%; and `COc1ccc(-n2c(C)nnc2SCC(=O)NC2CC2)cc1`, with 2.42%.
Then `Cc1nn(-c2ccccc2Cl)c2sc(C(=O)Nc3nnc(C4CC4)s3)cc12`, with 17.7%.
Consider `Cc1ccccc1OCC(=O)NNC(=O)CSc1nc(N)cc(N)n1`, for which the “hERG current change (%, negative = inhibition) at 10uM” value is given as 7.88%.
With `O=c1c2cc(Br)cc(Br)c2oc2nc3n(c(=O)c12)CCCS3` the figure was 2.96%; with `Cc1cc(C)cc(NC(=O)CSc2nnc(-c3ccc(S(=O)(=O)N4CCCC4)cc3)o2)c1`, -1.48%.
With `CCOC(=O)CNC(=O)CSc1nc(-c2ccc(C)cc2)ns1` the figure was 4.63%.
With `O=C(Nc1ccc(Br)cc1)Nc1ccccc1Cl` the figure was 19.7%; with `C/C(CC(=O)Nc1cccc(F)c1)=N\NC(=O)c1ccncc1`, 18.6%; with `CCOC(=O)c1cccc(NC(=O)CSc2nc3ccccc3c(=O)n2CCOC)c1`, -36.1%.
Turning to `COc1ccc(CCNC(=O)CCNC(=O)c2ccc(Cl)cc2)cc1OC`, the “hERG current change (%, negative = inhibition) at 10uM” value is recorded as -12.8%.
Then `CN(CC(=O)N1CCOCC1)S(=O)(=O)c1ccc2ccccc2c1`, with 5.33%; and `Cc1cccc(Cc2c(C)nc3nc(SCC(=O)NCc4ccco4)nn3c2C)c1`, with -40.8%; and `COC(=O)c1c(NC(NC(=O)C(C)C)C(Cl)(Cl)Cl)sc2c1CCCC2` (stereo not drawn), with -1.67%.
With `O=C(COC(=O)Cc1ccc(Cl)c(Cl)c1)NCc1ccco1` the figure was 12.9%; with `CN(C)S(=O)(=O)c1ccc(N2CCCC2)c(C(=O)NCC2CCCCC2)c1`, 7.58%.
Turning to `Cc1cc(O)c(N=Cc2cc3c(cc2[N+](=O)[O-])OCO3)cc1C`, the “hERG current change (%, negative = inhibition) at 10uM” value worked out at 22%.
Regarding `O=C(COc1ccc(Cl)cc1)NCCCNC(=O)c1ccccn1`, the “hERG current change (%, negative = inhibition) at 10uM” value is given as -16.3%.
With `Cc1ccc(CNc2ncnc3cc(Cl)ccc23)cc1` the figure was 12.4%; with `CCCOc1ccc(C(=O)NCC2OCCc3ccccc32)cc1OC` (stereo not drawn), -2.76%; with `COc1ccc2c(c1)cc(C(=O)N[C@@H](Cc1ccccc1)C(=O)O)n2C`, 29.4%.
Then `Cc1nc(C)c(C(=O)N2CCCC(C(=O)c3cc(F)ccc3F)C2)s1` (stereo not drawn), with -0.709%.
Then `O=C(Nc1ccc(N2CCOCC2)c(Cl)c1)c1ccc(F)cc1`, with -3.11%; and `CCc1cc(=O)oc2cc(OC(C)C(=O)NCC(O)c3ccccc3)c(Cl)cc12` (stereo not drawn), with 13%.
